Measured values taken from the supplement of paper PMC3334620.
The full ranking holds about 33,000 sequences; the median of “E-score (-0.5 to 0.5)” is about -0.043, and the highest 2% start at about 0.37. The list shows a part of the results.

Target: T1, Upc2 (UniProt Q12151)
T1 sequence: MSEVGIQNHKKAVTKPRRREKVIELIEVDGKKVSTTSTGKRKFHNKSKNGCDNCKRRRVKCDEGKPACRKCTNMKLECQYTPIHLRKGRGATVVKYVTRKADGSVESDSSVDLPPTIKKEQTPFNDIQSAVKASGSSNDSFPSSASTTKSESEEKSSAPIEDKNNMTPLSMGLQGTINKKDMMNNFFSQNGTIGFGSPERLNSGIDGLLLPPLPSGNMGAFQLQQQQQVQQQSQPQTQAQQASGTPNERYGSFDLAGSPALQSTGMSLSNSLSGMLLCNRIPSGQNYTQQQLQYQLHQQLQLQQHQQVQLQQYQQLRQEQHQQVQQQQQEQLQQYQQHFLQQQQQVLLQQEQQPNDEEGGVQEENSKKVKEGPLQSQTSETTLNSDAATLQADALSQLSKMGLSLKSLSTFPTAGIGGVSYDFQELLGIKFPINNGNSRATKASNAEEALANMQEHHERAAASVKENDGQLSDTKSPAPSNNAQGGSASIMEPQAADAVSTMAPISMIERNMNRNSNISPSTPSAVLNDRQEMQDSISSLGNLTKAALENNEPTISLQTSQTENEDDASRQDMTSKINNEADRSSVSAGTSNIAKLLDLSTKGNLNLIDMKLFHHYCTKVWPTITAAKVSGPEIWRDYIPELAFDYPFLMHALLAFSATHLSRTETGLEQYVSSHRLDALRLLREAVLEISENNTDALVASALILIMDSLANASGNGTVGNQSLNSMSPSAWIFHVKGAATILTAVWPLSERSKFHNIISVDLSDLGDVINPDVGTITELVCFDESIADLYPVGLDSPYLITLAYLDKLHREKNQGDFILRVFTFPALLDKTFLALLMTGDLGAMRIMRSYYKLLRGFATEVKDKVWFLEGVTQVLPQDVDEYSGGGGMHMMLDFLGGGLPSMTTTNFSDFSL
Test: PBM E-score (8-mer binding enrichment) (E-score (-0.5 to 0.5)); higher = stronger / more preferred TF binding; most listed sequences are background and not binding sites
Settings: protein concentration: 200 nM; construct: GST-full length
How it was run: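 Bound GST-tagged yeast transcription factors, applied at about 100-200 nM to double-stranded universal all-10-mer Agilent arrays, were detected with fluorescent anti-GST. Scans were normalised with masliner. A modified Wilcoxon-Mann-Whitney statistic, the E-score, was assigned to each ungapped eight-base word pooled with its reverse complement by the Universal PBM Analysis Suite.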

| Sequence | PBM E-score |
| --- | --- |
| AAAGCGTA | 0.262 |
| GCACGATA | -0.0168 |
| ACTAAAGC | -0.0826 |
| AGCCTGAC | -0.13 |
| GCATGTAA | -0.0858 |
| ATCAGGCA | -0.275 |
| ACCTCTCT | -0.169 |
| GGAACTCA | -0.217 |
| TCATGGAA | -0.0507 |
| AGTAGCAC | -0.105 |
| CTGACCGC | -0.0413 |
| AAGGATAG | -0.143 |
| TCATAGGA | -0.0211 |
| ACATGGGT | -0.0993 |
| ACAAGGGT | -0.0246 |
| CGCGGATA | 0.0827 |
| GGTAGTCA | -0.112 |
| ATCACCAG | -0.124 |
| ACTGAAAA | 0.129 |
| CTTCTCTC | -0.0112 |
| ACGCCTCG | 0.251 |
| CTTAGCTA | -0.103 |
| AGCTACGC | 0.148 |
| TAAAGAAA | 0.0128 |
| ACGTTAGG | -0.0536 |

| Sequence | PBM E-score |
| --- | --- |
| ACGAACGC | 0.323 |
| CCATGAAA | -0.127 |
| CTAGCCAC | -0.208 |
| GCGTTGTA | 0.127 |
| CCGGAGAC | -0.0181 |
| ACTAGTAT | -0.0348 |
| CAGAGGAC | -0.0978 |
| ATAGAACC | -0.206 |
| ACAGACCA | -0.00784 |
| ACGGATCT | 0.032 |
| GTATTCGA | 0.165 |
| GTGGGCGA | -0.212 |
| GGGAAGAC | -0.131 |
| TAGCTAAA | 0.119 |
| AGGGATGG | -0.0173 |
| AGTTTTGC | 0.0231 |
| CGGACTAA | -0.0805 |
| CACACCAG | -0.194 |
| ACGACGCA | 0.389 |
| AATCCCCA | -0.199 |
| CTGCACAG | -0.0455 |
| AGATTTTA | -0.129 |
| TATTGGGA | -0.0703 |
| GGAGGACC | -0.299 |
| CACCGATG | -0.0949 |

| Sequence | PBM E-score |
| --- | --- |
| CCCGATTA | 0.0106 |
| AGGACTGC | -0.241 |
| AGACTCAG | -0.106 |
| GGTACTAC | 0.0298 |
| CTTCGGGC | -0.0715 |
| AGTAGCCC | -0.25 |
| CGCAGTTC | 0.112 |
| CCACTAAG | -0.176 |
| AGTGGCAT | -0.0178 |
| GCGAAGCA | 0.0249 |
| CACCGGAA | 0.0707 |
| CCATGTGA | -0.253 |
| AAATTAGA | -0.0162 |
| CTCGTTGA | 0.313 |
| TCCAATCA | -0.118 |
| ATTGACAG | -0.0958 |
| GAAAGTCC | -0.273 |
| GAATTCAC | 0.036 |
| GTATCCAA | -0.0131 |
| ATCCTCAA | -0.16 |
| GCAATCGA | 0.122 |
| ATTACGCG | 0.191 |
| ACGTCATG | 0.0103 |
| CGGGTAAC | 0.125 |
| ACCAGCGA | -0.138 |

| Sequence | PBM E-score |
| --- | --- |
| CAGCCGCA | -0.0445 |
| ACCTTTGA | -0.162 |
| GCCATTTA | -0.103 |
| CAGCATCA | -0.19 |
| TATTTTGA | -0.197 |
| CAAAGGCA | -0.118 |
| TCGTCCAA | -0.0174 |
| ATGGGAAT | -0.1 |
| GCATGCCA | 0.00258 |
| CTGTTCAA | -0.0588 |
| CACGCTTC | -0.156 |
| CCCATTTC | -0.248 |
| GTGCGCTA | 0.117 |
| AAATAGCT | -0.0788 |
| AAACGACT | 0.456 |
| CTATCATA | -0.021 |
| ACTATACT | 0.152 |
| TTCCCCAA | -0.188 |
| CAAGTTAA | -0.063 |
| AACTCAAT | -0.0483 |
| AACAATGG | -0.0256 |
| GCGAATAC | 0.213 |
| CGGTACCC | -0.0601 |
| AACTGGCA | -0.037 |
| CCGCATGC | -0.106 |

| Sequence | PBM E-score |
| --- | --- |
| CCCAGCAG | -0.127 |
| ATACTTTA | -0.0548 |
| ATCTCTAG | -0.129 |
| CCGTCCCC | -0.22 |
| CTGCATAC | 0.14 |
| TAGACAAA | -0.101 |
| AATGTTCG | 0.091 |
| CCAGGCCA | -0.342 |
| GAGAGGCC | -0.193 |
| AATTGTGT | 0.0215 |
| GGTTGATA | -0.0899 |
| CGCGCTTA | 0.16 |
| CATTTACA | -0.155 |
| CTAGTTTA | -0.0635 |
| AGGACGAG | -0.265 |
| ACTCATAT | -0.0667 |
| AAAGTGGA | -0.277 |
| CGTGTTAG | 0.123 |
| GCATGTTA | 0.0537 |
| GAAAGGTC | -0.0457 |
| ACTTGACG | -0.0403 |
| ACCCTCTG | -0.236 |
| CTTTGCGA | 0.146 |
| AAGGCCTA | -0.32 |
| ACGATGCC | 0.238 |

| Sequence | PBM E-score |
| --- | --- |
| ATCAACAA | 0.135 |
| CTAAAGCC | -0.244 |
| ATAAGTTG | -0.0732 |
| ACGACGTA | 0.413 |
| ATACGGTG | 0.408 |
| AACTACCT | -0.152 |
| CCGGTAAC | 0.0801 |
| GCGCAACA | -0.19 |
| ATGAAATG | -0.185 |
| GGCTGAAC | 0.0193 |
| GCGTCTTA | -0.0268 |
| CCGACACC | 0.0358 |
| AGGAAGTG | -0.0944 |
| GTACGTGA | 0.327 |
| AGTTCATC | -0.246 |
| AAGGATGT | -0.186 |
| GGCGGGTA | -0.00895 |
| CACCGTTA | 0.199 |
| AGGCTAAA | -0.0397 |
| CCGGCAAG | -0.0372 |
| GTCTATGA | -0.0543 |
| AAATATTG | 0.0554 |
| AATGATTA | -0.0182 |
| AAGGATCC | -0.0448 |
| GGCGACAC | -0.0467 |

| Sequence | PBM E-score |
| --- | --- |
| CGTCTCGA | 0.0222 |
| GACATTCC | -0.0735 |
| AGGCGCTA | -0.056 |
| CCGCCCAC | 0.00393 |
| CACTCATG | -0.147 |
| CTTGCACC | 0.0237 |
| ACGCACAG | -0.0832 |
| CAAAACAA | -0.318 |
| GGGTGACC | -0.141 |
| CCTGGGAG | -0.287 |
| AAGGGCTA | -0.0638 |
| CGAGGATC | 0.175 |
| CGAACAGA | 0.171 |
| ACCGACAT | 0.199 |
| GTCGCGAA | 0.181 |
| ACCAAACC | -0.0475 |
| TATCCGAA | 0.262 |
| CCGGGTTC | 0.116 |
| GAGAGCCA | -0.0367 |
| CCAGGCTC | -0.129 |
| GCCAGGTA | 0.0753 |
| AAGATCAC | -0.0374 |
